Experimental data: the supplement of paper PMC12217912
This is one part of the list. The full chains were built here from the parent and the listed change. Values near 0.05 are background.

B1: TEV protease; numbered along this chain (parent)
chain: MGESLFKGPRDYNPISSSICHLTNESDGHTTSLYGIGFGPFIITNKHLFRRNNGTLVVQSLHGVFKVKDTTTLQQHLVDGRDMIIIRMPKDFPPFPQKLKFREPQREERICLVTTNFQTKSMSSMVSDTSCTFPSGDGIFWKHWIQTKDGQCGSPLVSTRDGFIVGIHSASNFTNTNNYFTSVPKNFMELLTNQEAQQWVSGWRLNADSVLWGGHKVFMVKPEEPFQPVKEATQL

Variants of: B1
Assay: raw area under fraction-flipped curve 0-4 h after induction (AUC4h, not background-subtracted), DNA-recorder readout of cleavage of the substrate (dimensionless); higher = more cleavage of the substrate by the protease variant
Settings: temperature: 34 °C; time window: 0-4 h after rhamnose induction
Experimental: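 In vivo DNA recorder in E. coli TOP10(DE3) ΔrhaA at 34 °C. Each TEVp single-site mutant (parent TEVp 0) is paired with a single-site variant of the 7-mer TEVs (canonical ENLYFQ|S). The substrate sits between flexible linkers in a Bxb1-sfGFP-TEVs-SsrA fusion, so cleavage stabilises Bxb1 and speeds flipping of a recombination array, read by NGS. The value is the raw area under the fraction-flipped curve over 0-4 h after rhamnose induction (AUC4h), with ≥20 reads per time point. It is not background-subtracted; inactive controls average about 0.047.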
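Also: Bxb1 expression induced with 0.2% (w/v) L-rhamnose at OD600 near 0.5, cultures sampled hourly, flipped fraction per protease–substrate barcode pair counted by paired-end Illumina sequencing.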

| Variant | area with substrate ENLYFQC | area with substrate ENLYFQH | area with substrate ENLYFQI | area with substrate ENLYFQK | area with substrate ENLYFQL | area with substrate ENLYFQM | area with substrate ENLYFQP | area with substrate ENLYFQR | area with substrate ENLYFQS | area with substrate ENLYFQV | area with substrate ENLYFQW | area with substrate ENLYFQD | area with substrate ENLYFQE | area with substrate ENLYFQG | area with substrate ENLYFQN | area with substrate ENLYFQQ | area with substrate ENLYFQT | area with substrate ENLYFQF | area with substrate ENLYFQY |
| --- | --- | --- | --- | --- | --- | --- | --- | --- | --- | --- | --- | --- | --- | --- | --- | --- | --- | --- | --- |
| I145Q | 0.0733 | 0.0584 | 0.0688 | 0.0599 | 0.0511 | 0.0934 | 0.0558 | 0.0621 | 0.0713 | 0.0472 | 0.0555 |  |  |  |  |  |  |  |  |
| T30Q | 0.145 | 0.0698 | 0.0666 | 0.0614 | 0.0727 | 0.0941 |  | 0.0537 | 0.0906 | 0.0653 |  | 0.0651 | 0.06 | 0.0699 | 0.082 | 0.0633 | 0.065 |  |  |
| Q118V | 0.112 |  |  |  | 0.0679 |  |  | 0.0578 | 0.106 |  |  |  |  | 0.111 |  | 0.0684 | 0.0534 |  |  |
| G35W | 0.0512 |  |  | 0.0557 |  | 0.0565 |  | 0.0589 | 0.0491 | 0.0445 |  |  |  |  |  | 0.0519 | 0.0502 |  |  |
| T55F | 0.107 |  |  | 0.0679 | 0.0577 |  | 0.0537 | 0.0591 | 0.0984 |  | 0.0643 | 0.0732 |  | 0.0918 | 0.0725 |  | 0.0798 | 0.0369 |  |
| Q59M | 0.123 |  |  | 0.0434 | 0.0646 | 0.0825 | 0.052 | 0.0567 | 0.102 |  |  | 0.0649 | 0.0451 | 0.115 |  | 0.103 | 0.0744 | 0.112 | 0.0611 |
| I36F | 0.0882 | 0.0489 | 0.053 |  |  | 0.0733 | 0.0444 | 0.0674 | 0.084 | 0.0558 | 0.074 | 0.0656 |  | 0.0723 | 0.0604 |  | 0.048 | 0.0557 |  |
| P155V | 0.0943 | 0.0594 | 0.0511 | 0.0604 | 0.0482 | 0.0695 |  | 0.0763 | 0.0892 | 0.0569 | 0.0583 | 0.073 | 0.0574 |  | 0.105 |  | 0.059 |  |  |
| P155H | 0.0527 |  | 0.0709 | 0.0462 | 0.0639 |  | 0.0531 | 0.0582 | 0.0518 | 0.0521 | 0.0363 | 0.0527 | 0.0547 |  | 0.0224 | 0.0493 | 0.0393 |  |  |
| S124F | 0.0948 |  | 0.0618 | 0.0686 | 0.0477 | 0.0733 | 0.0743 | 0.0776 | 0.0986 |  | 0.0369 |  |  | 0.0914 | 0.0766 |  | 0.0632 |  | 0.0522 |
| S124I | 0.0954 | 0.0584 | 0.0687 | 0.0667 |  | 0.072 | 0.0592 |  | 0.0973 | 0.0644 | 0.0665 |  |  |  | 0.079 |  | 0.0515 |  |  |
| S124A | 0.138 | 0.0186 | 0.0645 |  |  | 0.133 | 0.0622 | 0.0573 | 0.11 |  |  |  |  | 0.0771 | 0.0798 |  | 0.0727 |  |  |
| M83C | 0.0976 | 0.0688 |  | 0.0734 | 0.0617 | 0.0648 | 0.0402 |  | 0.0853 |  | 0.0752 |  |  |  |  |  | 0.0665 |  |  |
| M83K | 0.058 | 0.0554 | 0.0546 | 0.0748 | 0.0576 | 0.0622 | 0.0493 | 0.0373 | 0.061 |  | 0.0497 |  |  | 0.06 | 0.0431 |  |  |  | 0.0599 |
| F92Y | 0.0894 | 0.0887 | 0.0456 | 0.0504 |  | 0.0955 | 0.0462 | 0.0616 | 0.106 |  | 0.0439 | 0.0401 |  |  | 0.0788 | 0.0621 | 0.0849 | 0.05 |  |
| T44H | 0.0348 | 0.0532 | 0.0537 | 0.0484 | 0.0462 | 0.0378 |  | 0.0355 | 0.055 | 0.0249 |  |  | 0.0451 | 0.0528 | 0.0473 | 0.0502 |  |  | 0.0447 |
| I84F | 0.073 | 0.0478 |  |  | 0.017 | 0.0556 |  | 0.0567 | 0.0625 | 0.0564 | 0.0544 | 0.0507 |  |  | 0.0654 | 0.0552 | 0.0577 |  | 0.035 |
| T132Q | 0.0876 | 0.0632 |  | 0.0384 | 0.0542 | 0.0541 |  | 0.0537 | 0.0804 |  | 0.0758 |  |  | 0.0759 |  |  | 0.0644 |  |  |
| S154R | 0.0917 | 0.0527 |  | 0.0528 | 0.0445 | 0.0639 | 0.0723 | 0.0549 | 0.0776 |  | 0.0668 |  |  | 0.072 | 0.0571 | 0.0586 | 0.0449 | 0.0664 | 0.0602 |
| D128V | 0.133 | 0.111 | 0.0791 | 0.0542 | 0.0665 | 0.108 |  | 0.0697 | 0.131 |  | 0.0782 |  |  |  | 0.1 |  | 0.073 |  | 0.0577 |
| S130D | 0.0869 | 0.0698 | 0.0731 | 0.0758 | 0.0808 |  |  |  | 0.0921 |  |  |  |  | 0.0869 |  |  |  |  | 0.0726 |
| G136Y | 0.0615 |  | 0.0582 | 0.0775 | 0.0622 | 0.0928 |  | 0.0585 | 0.0998 | 0.0625 | 0.0781 | 0.0788 |  | 0.112 |  | 0.0711 |  | 0.077 |  |
| M125S | 0.14 | 0.0685 | 0.0699 |  | 0.0487 | 0.111 | 0.058 | 0.0741 | 0.102 |  | 0.069 |  |  |  | 0.0642 |  | 0.0685 |  |  |
| M125R | 0.157 | 0.0802 | 0.0585 | 0.0548 | 0.0511 | 0.0998 | 0.0579 | 0.0676 | 0.111 | 0.0562 | 0.0763 | 0.0683 |  | 0.121 | 0.0841 |  | 0.0674 | 0.0777 | 0.0362 |
| T147P | 0.0918 | 0.0655 | 0.0538 | 0.0652 | 0.0434 | 0.0777 | 0.0567 | 0.0667 | 0.0748 | 0.0584 | 0.047 |  |  | 0.0872 | 0.0624 | 0.0407 | 0.0759 |  | 0.0582 |
| K100F | 0.122 |  | 0.054 | 0.0596 |  | 0.0647 | 0.0739 | 0.0636 | 0.102 |  |  |  |  | 0.0882 |  |  | 0.0836 | 0.106 |  |
| R51F | 0.167 |  | 0.0509 | 0.0718 | 0.0619 | 0.109 | 0.0625 | 0.0527 | 0.12 | 0.0614 | 0.077 |  |  |  | 0.0869 |  | 0.0625 |  | 0.101 |
| R51K | 0.124 | 0.082 | 0.0635 |  |  | 0.104 |  | 0.0555 | 0.107 | 0.054 | 0.0641 | 0.0732 |  |  |  |  |  |  | 0.0782 |
